Assay results: patent publication US20220340685A1, “COMBINATION THERAPY WITH ENTPD2 AND CD73 ANTIBODIES” (Novartis AG, priority 2019, published 2022)
Residue numbers refer to the chain shown, from its start. Blank lines part the entries; values can stand above or below the molecule they belong to.

Experiments:
human ENTPD2 = target: T1, human ENTPD2 (Homo sapiens, UniProt Q9Y5L3); assay: Biacore SPR kinetic affinity to human ENTPD2 ECD; assay type: binding; details: 25° C.; for Human ENTPD2 ka: association rate; for Human ENTPD2 kd: dissociation rate
T1 construct: residues 29-462 of human or cyno ENTPD2; GP67 signal peptide (N); made in house; host or cells: High Five (Trichoplusia ni) insect cells, baculovirus
T1 sequence (Q9Y5L3 29-462): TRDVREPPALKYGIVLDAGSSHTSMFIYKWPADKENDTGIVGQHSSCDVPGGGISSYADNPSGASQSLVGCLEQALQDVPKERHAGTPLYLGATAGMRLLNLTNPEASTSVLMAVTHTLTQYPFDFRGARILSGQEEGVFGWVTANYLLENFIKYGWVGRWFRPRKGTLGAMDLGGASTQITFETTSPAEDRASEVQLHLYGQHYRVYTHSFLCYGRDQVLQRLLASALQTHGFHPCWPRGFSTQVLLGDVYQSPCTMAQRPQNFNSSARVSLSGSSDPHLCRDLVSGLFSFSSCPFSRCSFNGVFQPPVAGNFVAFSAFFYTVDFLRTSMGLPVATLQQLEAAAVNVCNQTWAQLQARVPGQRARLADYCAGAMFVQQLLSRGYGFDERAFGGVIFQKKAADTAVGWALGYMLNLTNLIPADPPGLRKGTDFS
Procedure: (§1) Biacore Screening: Affinity was measured by determining the kinetic rate constants using surface plasmon resonance (SPR) on a Biacore T200 or T100 with the T200 sensitivity upgrade instrument (Biacore, GE Healthcare). Antibodies were captured on CM5 sensor chips (Biacore, GE Healthcare) prepared with a mouse anti-human IgG Fc antibody (ThermoFisher catalogue # 05-4200) amine coupled to the surface. […] ENTPD2 analytes were allowed to associate for 180 s and dissociate for up to 1800 s depending on the off-rate of the antibody at a flow rate of 30 μL/min. The running buffer was PBS pH 7.2 (prepared from a Corning 10X stock, cat# 46-013-CM) +0.05% Tween 20. Regeneration was accomplished with 30 s injections of 3 or 4 M MgCl2 to remove all the captured antibody and remaining complex from the surface, after which fresh antibody was captured. The raw data were analyzed using Biacore T200 Evaluation Software version 1.0 and fit to a 1:1 binding model, with all parameters set to fit globally except for RI, which was set to fit locally.

[1] = test system: cynomologus (cyno) ENTPD2; assay: Biacore SPR kinetic affinity to cyno ENTPD2 ECD; assay type: binding, cynomolgus monkey; details: 25° C.; for Cyno ENTPD2 ka: association rate; for Cyno ENTPD2 kd: dissociation rate
Procedure: as §1

mouse ENTPD2 = target: T2, mouse ENTPD2 (Mus musculus, UniProt O55026); assay: Antibody specificity: binding to mouse ENTPD2; details: Biacore SPR
T2 construct: residues 29-462 of mouse or rat ENTPD2 (the extracellular domain); His6; mouse IgK signal peptide (N); made in house; host or cells: FreeStyle 293-F cells (transient)
T2 sequence (O55026 29-462): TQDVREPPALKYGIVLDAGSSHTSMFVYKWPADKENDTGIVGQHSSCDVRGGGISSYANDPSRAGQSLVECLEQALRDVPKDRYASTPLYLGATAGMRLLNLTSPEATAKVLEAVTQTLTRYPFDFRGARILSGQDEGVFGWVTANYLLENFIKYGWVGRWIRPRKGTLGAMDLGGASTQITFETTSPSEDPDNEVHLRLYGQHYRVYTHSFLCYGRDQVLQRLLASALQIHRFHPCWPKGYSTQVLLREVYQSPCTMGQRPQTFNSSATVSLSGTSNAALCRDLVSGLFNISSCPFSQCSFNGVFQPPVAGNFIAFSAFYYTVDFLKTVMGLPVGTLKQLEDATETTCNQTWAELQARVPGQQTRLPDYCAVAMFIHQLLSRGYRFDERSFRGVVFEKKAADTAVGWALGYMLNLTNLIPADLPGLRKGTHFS
Procedure: ELISA screening on directly coated antigen: Maxisorp™ 384-well plates (Thermo Nunc) were coated with 2 μg/ml of recombinant ENTPD2 diluted in PBS. After blocking with 2% BSA (bovine serum albumin) in PBS for 1 hr at room temperature, washing plates 3× with TBST (0.05% Tween 20 in TBS, Sigma Cat# T9039), primary antibodies in TBST and 2% BSA were added in a serial dilution and incubated for 1 hr at room temperature. Plates were washed again and bound antibodies were detected by incubation with anti-hFc gamma conjugated to horseradish peroxidase (HRP; Jackson ImmunoResearch, Cat#115-035-098, diluted 1:5000 in 1× TBST+2% BSA) for 1 hr at room temperature followed by washing with TBST and afterwards addition of SureBlue Peroxidase substrate (KPL, #52-00-03) substrate. After 15 min, absorbance at 650 nm was recorded and analyzed in GraphPad Prism6.
Biacore Screening: Affinity was measured by determining the kinetic rate constants using surface plasmon resonance (SPR) on a Biacore T200 or T100 with the T200 sensitivity upgrade instrument (Biacore, GE Healthcare). […] The raw data were analyzed using Biacore T200 Evaluation Software version 1.0 and fit to a 1:1 binding model, with all parameters set to fit globally except for RI, which was set to fit locally. […]

[2] = target: T3, Human ENTPD1 (NP_001767) expressing NIH/3T3 cells (Homo sapiens, UniProt P49961); assay: Cross reactivity: FACS binding to human ENTPD1 expressing NIH/3T3 cells; details: 50 nM antibody
T3 construct: expressed in transfected cells; host or cells: NIH/3T3 (retroviral transduction, FACS-sorted)
T3 sequence (P49961 1-510): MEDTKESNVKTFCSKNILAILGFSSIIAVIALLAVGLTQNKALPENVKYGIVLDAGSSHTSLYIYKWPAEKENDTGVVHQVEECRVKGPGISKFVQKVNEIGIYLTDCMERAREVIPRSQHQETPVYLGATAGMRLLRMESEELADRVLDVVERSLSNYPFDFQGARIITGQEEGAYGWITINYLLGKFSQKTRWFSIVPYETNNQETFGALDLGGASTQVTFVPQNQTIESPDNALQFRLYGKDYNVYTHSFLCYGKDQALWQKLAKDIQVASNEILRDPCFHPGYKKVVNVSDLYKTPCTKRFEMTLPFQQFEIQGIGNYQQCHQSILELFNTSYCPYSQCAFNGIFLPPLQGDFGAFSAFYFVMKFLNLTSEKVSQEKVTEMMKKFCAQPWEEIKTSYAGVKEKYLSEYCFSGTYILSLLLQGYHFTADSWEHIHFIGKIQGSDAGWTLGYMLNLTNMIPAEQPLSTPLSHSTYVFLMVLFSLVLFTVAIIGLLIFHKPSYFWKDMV
Procedure: (§2) FACS screening: Specific binding of candidate antibodies to endogenously expressed ENTPD2 was assessed by flow cytometry. Cells were rinsed thoroughly with 1× PBS and treated with Accutase (Millipore #SCR005) to lift from growth plates and resuspended at approximately 1×10^5 cells/90 μL in 1× FACS buffer (2% FBS +0.1% NaN3 in PBS). In a 96-well U-bottom plate, 10 μL of 10× antibody solution in FACS buffer was pre-seeded and 90 μL of cell suspension was added. Cell were incubated for 30 minutes at 4° C., washed 1× with cold PBS and resuspended in 100 μL of 1:500 secondary antibody 1× FACS buffer (Allophycocyanin conjugated F(ab′)2 goat anti-human IgG, Fcγ specific; Jackson Immunoresearch, Cat# 109-136-098). After additional incubation for 15 min at 4° C., cells were washed twice with PBS and resuspended in 100 μL of 1× FACS buffer with 4 μg/mL propidium iodide (Life Technologies, Cat# P3566). Geometric mean fluorescence intensity was calculated on live single cells using FlowJo software.
(§3) Cross reactivity Human ENTPD1 (NP_001767) expressing NIH/3T3 cells were generated using a retroviral transduction approach. 72hrs post transduction, engineered cells were stained with the anti-Human CD39/ENTPD1 APC-conjugated Antibody (R&D systems, Minneapolis, Minn.) and live cells that expressed human ENTPD1 were separated from the rest of the population via fluorescence activated cell sorting. […]

H520 cells = assay: Cross reactivity: FACS binding to H520 cells (ENTPD3 and ENTPD8 expression); design: species or system human; details: 50 nM antibody
Procedure: as §2
H520 cells were identified as a cancer cell line with ENTPD3 (Ct 25) and ENTPD8 (Ct 26) expression by Taqman and were used for selectivity screening.

NIH/3T3 cells = assay: Cross reactivity: FACS binding to parental NIH/3T3 control cells; details: 50 nM antibody
Procedure: as §2, §3

B2: ANTI-HUMAN ENTPD2 MAB4 (antibody)
heavy: QIQLQESGPGLVKPSQTLSLTCTVSGYSITSGYYWNWIRQHPGKGLEWIGYISYDADNNYNPSLKNRVTISRDTSKNQFSLKLSSVTAADTAVYYCAGGYYRYGLGSYRGSYYYVMDYWGQGTTVTVSSASTKGPSVFPLAPSSKSTSGGTAALGCLVKDYFPEPVTVSWNSGALTSGVHTFPAVLQSSGLYSLSSVVTVPSSSLGTQTYICNVNHKPSNTKVDKRV[left out - human IgG1 Fc]
light: ETVLTQSPATLSVSPGERATISCKASQSVDYEGHSYMNWYQQKPGQAPRLLIYAASNLESGIPARFSGSGSGTDFTLTISSVEPEDAATYYCQQSNEDPPTFGGGTKLEIKRTVAAPSVFIFPPSDEQLKSGTASVVCLLNNFYPREAKVQWKVDNALQSGNSQESVTEQDSKDSTYSLSSTLTLSKADYEKHKVYACEVTHQGLSSPVTKSFNRGEC
Apparent FACS binding at 50 nM, NIH/3T3 - ENTPD1 [2]: No binding | Apparent FACS binding at 50 nM, H520 Cells (H520 cells): No binding | Apparent FACS binding at 50 nM, NIH/3T3 cells (NIH/3T3 cells): No binding

B4: ANTI-HUMAN ENTPD2 MAB5 (antibody)
heavy: B2 heavy
light: B2 light with E32D, H34N
Apparent FACS binding at 50 nM, NIH/3T3 - ENTPD1 [2]: No binding | Apparent FACS binding at 50 nM, H520 Cells (H520 cells): No binding | Apparent FACS binding at 50 nM, NIH/3T3 cells (NIH/3T3 cells): No binding

The next lines start with results.

Human ENTPD2 ka (human ENTPD2): 300000 M⁻¹ s⁻¹ | Human ENTPD2 kd (human ENTPD2): 0.00022 s⁻¹ | Cyno ENTPD2 kd [1]: 0.0057 s⁻¹ | Mouse ENTPD2 BIACore KD (nM) (mouse ENTPD2): No binding
B1: mAb4: humanized anti-human ENTPD2 antibody derived from mAb16; probably heavy chain SEQ ID NO: 48, light chain SEQ ID NO: 59 (antibody)
heavy: B2 heavy
light: B2 light
Cyno ENTPD2 ka [1]: 140000 M⁻¹ s⁻¹

Human ENTPD2 ka (human ENTPD2): 270000 M⁻¹ s⁻¹ | Human ENTPD2 kd (human ENTPD2): 0.00016 s⁻¹ | Cyno ENTPD2 kd [1]: 0.003 s⁻¹ | Mouse ENTPD2 BIACore KD (nM) (mouse ENTPD2): No binding
B3: mAb5: humanized anti-human ENTPD2 antibody derived from mAb16; probably heavy chain SEQ ID NO: 48, light chain SEQ ID NO: 66 (antibody)
heavy: B2 heavy
light: B2 light with E32D, H34N
Cyno ENTPD2 ka [1]: 290000 M⁻¹ s⁻¹
